# PubChem BioAssay AID445 (National Center for Advancing Translational Sciences (NCATS), 2006)
# The campaign covered roughly 110,000 compounds. About 40 (0.04%) were called active. This list was built around the results that the source calls inconclusive (neither active nor inactive); the mix of calls is not that of the screen. Calls come from the whole dose curve; as a rule, active = well fitted curve in the direction sought with a large enough effect in the signal ratio (not every such curve was filed as active); inconclusive = small, poorly fitted or top-dose-only effect, or a change in a side signal; inactive = flat fitted curve, though single readings scatter; the % refers to the signal ratio. Potencies of inconclusive entries are doubtful fits and often do not repeat.
# Assay: IkB Signaling;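 for IkBa stabilization activation: 0% = basal untreated cells and 100% = reference inhibitor full response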
# Details: ABC-DLBCL IkBa-CBG/CBR dual luciferase ratio (green luciferase fused to IkBa over red control in OCI-Ly3 lymphoma cells), 4 h, scaled: untreated 0%
# Outline: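 Curves were fitted separately to fusion (green), unfused (red) and ratio luminescence, then classed by r2, magnitude and activity. Cells: OCI-Ly3, 4 h compound plus doxycycline at 37C; 10 uM MG-132 defined full response.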
# [1] = IkBa stabilization activation: at 57.1 µM (top of the series), proteasome inhibitor 100% unless noted
# Potency is the fitted concentration of half-maximal effect.
smiles,measurement,setting,value
COc1cccc(NC(=O)CSc2nc3c([nH]c4ccccc43)c(=O)n2-c2cccc(Cl)c2)c1,IkBa stabilization activation,[1],inconclusive: 6.03% [signal inhibitor]
CCOc1ccc(N2C(=O)CC(Sc3nc(C)cc(C)n3)C2=O)cc1 (configuration not stated),IkBa stabilization activation,[1],inactive
CCOC(=O)c1ccc(NC(=O)CSc2nc(C)c(Cc3ccccc3)c(=O)[nH]2)cc1,IkBa stabilization activation,[1],inconclusive: -1.43% [signal inhibitor]
Cc1ccc(-c2ccc(=O)n(CC(=O)Nc3ccc(C(C)C)cc3)n2)cc1,IkBa stabilization activation,[1],inconclusive: 2.88% [signal inhibitor]
C=CCOc1ccc(C2c3c(oc4ccc(C)cc4c3=O)C(=O)N2CCCN2CCOCC2)cc1 (configuration not stated),IkBa stabilization activation,[1],inactive
Cc1ccc(S(=O)(=O)Cn2nnnc2C(c2ccc(F)cc2)N2CCCCC2)cc1 (configuration not stated),IkBa stabilization activation,[1],inconclusive: 0.332% [signal inhibitor]
COCCNC(=O)CCn1c(=O)c2cc(OC)c(OC)cc2n(CC(=O)Nc2ccccc2OC)c1=O,IkBa stabilization activation,[1],inconclusive: -0.862% [signal inhibitor]
CC(=O)c1nnn(-c2nc(N)nc(N(c3ccccc3)c3ccccc3)n2)c1C,IkBa stabilization activation,[1],inconclusive: 3.58% [signal inhibitor]
CCN(CC)CCOC(=O)c1ccc(NC(=O)CSc2cc(=O)n(CC)c3ccccc23)cc1,IkBa stabilization activation,[1],inactive
CCc1cccc(CC)c1N(COC)C(=O)Cn1c(C)nc2ccccc21,Potency,[1],"inconclusive: 15.8 µM [signal inhibitor, partial curve]"
CC1CCCCN1C(=O)Cn1c(=O)n(C2CCCCC2)c(=O)c2ccccc21 (configuration not stated),IkBa stabilization activation,[1],inactive
O=C(Nc1ccc(F)c(Cl)c1)C1Cc2ccccc2CN1S(=O)(=O)c1ccc(F)cc1 (configuration not stated),Potency,[1],"inconclusive: 3.16 µM [signal inhibitor, full curve, poor fit]"
CCOc1ccccc1CNC(=O)CCCn1c(=O)c2cccn2c2cccnc21,IkBa stabilization activation,[1],inactive
Clc1ccc(N2CCN(Cc3nnc(-c4ccc5c(c4)OCO5)o3)CC2)cc1,IkBa stabilization activation,[1],inconclusive: 8.45% [signal inhibitor]
COCCn1c(=O)c(-c2cccc(Cl)c2)nc2cncnc21,IkBa stabilization activation,[1],"inactive: 2.48% [at 11.4 µM, scaled: untreated 0%, proteasome inhibitor 100%]"
COc1ccc(NC(=O)C2=C(C)Nc3c(C(=O)Nc4ccc(C)cc4)cnn3C2c2cccc(Cl)c2)cc1 (configuration not stated),IkBa stabilization activation,[1],inconclusive: 4.48% [signal inhibitor]
O=C(NC(C(=O)c1ccccc1)n1ccc(=O)[nH]c1=O)c1ccccc1 (configuration not stated),IkBa stabilization activation,[1],inconclusive: 6.53% [signal inhibitor]
CCOC(=O)N1CCN(S(=O)(=O)c2ccc(C(=O)Nc3nc4ccccc4s3)cc2)CC1,Potency,[1],"inconclusive: 0.398 µM [signal inhibitor, full curve]"
CC(=O)N1c2ccccc2CC1C(=O)N1CCN(c2cccc(C)c2C)CC1 (configuration not stated),IkBa stabilization activation,[1],inconclusive: 0.397% [signal inhibitor]
Cc1oc2ccc(O)c(CN3CCOCC3)c2c1C(=O)Nc1ccc(C(C)C)cc1,IkBa stabilization activation,[1],inconclusive: 3.8% [signal inhibitor]
Cc1ccc2onc(CC(=O)N3CCN(c4ccccc4F)CC3)c2c1,IkBa stabilization activation,[1],inconclusive: 2.79% [signal inhibitor]
O=C(CCCn1c(=O)c2cccn2c2ccccc21)Nc1cccc(Cl)c1,IkBa stabilization activation,[1],inactive
COc1ccc(-c2onc(C)c2C)cc1S(=O)(=O)Nc1ccc(OC(F)(F)F)cc1,IkBa stabilization activation,[1],inconclusive: 10.8% [signal inhibitor]
Cc1ccc(CSc2oc(-c3ccco3)nc2S(=O)(=O)c2ccc(Cl)cc2)cc1,IkBa stabilization activation,[1],inconclusive: 2.95% [signal inhibitor]
CCOC(=O)c1cccc(NC(=O)c2cc(S(=O)(=O)N3CCCC3)cn2C)c1,IkBa stabilization activation,[1],inconclusive: 2.12% [signal inhibitor]
COc1ccc(OC)c(-c2cc(C(=O)Nc3c(C)nn(Cc4ccc(Cl)cc4)c3C)no2)c1,IkBa stabilization activation,[1],inconclusive: 4.72% [signal inhibitor]
O=C(Nc1nc(-c2ccc(Cl)s2)cs1)c1cccs1,Potency,[1],"inconclusive: 3.16 µM [signal inhibitor, full curve]"
O=C(Nc1ccc(F)cc1F)c1noc2c1CCC2,IkBa stabilization activation,[1],inactive
CCCOC(=O)c1ccc(NC(=O)Cn2nnc3sc4c(c3c2=O)CCC(C(C)(C)C)C4)cc1 (configuration not stated),IkBa stabilization activation,[1],inconclusive: 1.06% [signal inhibitor]
CC(=O)c1cc(-c2ccc(F)cc2)n(CC(=O)NC2CCCCCC2)c1C,IkBa stabilization activation,[1],inactive
COc1ccc(NC(=O)c2ccco2)cc1NC(=O)C(C)Oc1ccc(Cl)cc1Cl (configuration not stated),Potency,[1],"inconclusive: 10 µM [signal inhibitor, partial curve]"
O=C(COc1ccc(Cl)cc1Cl)Nc1ccc(Cl)cn1,IkBa stabilization activation,[1],inactive
Cc1nc(NC(=O)c2ccccc2)sc1-c1csc(NCc2ccco2)n1,IkBa stabilization activation,[1],inconclusive: 6.16% [signal inhibitor]
N#Cc1c(NC(=O)CSCC(=O)O)sc2c1CCCC2,IkBa stabilization activation,[1],inconclusive: 15% [signal inhibitor]
CCCCOc1ccc(C2=NC(c3ccccc3)=Nc3ccc(OC)cc3N2)cc1,IkBa stabilization activation,[1],inconclusive: 0.0252% [signal inhibitor]
Clc1ccccc1Cc1cn2cc(-c3ccccc3)nc2s1,Potency,[1],"inconclusive: 6.31 µM [signal inhibitor, partial curve]"
C=CCc1c(C)nc2nc(SCC(=O)Nc3ccc(OCC)cc3)nn2c1C,IkBa stabilization activation,[1],inconclusive: -0.19% [signal inhibitor]
COc1ccc(-c2nc3cnccn3c2Nc2ccc3c(c2)OCO3)cc1,IkBa stabilization activation,[1],inactive
CC(C)c1ccc(Nc2ncnc3c2c(-c2ccccc2)cn3-c2ccccc2)cc1,IkBa stabilization activation,[1],inconclusive: 3.45% [signal inhibitor]
Cn1c(NC(=O)c2ccco2)cc(=O)n(C)c1=O,IkBa stabilization activation,[1],inactive
COc1ccccc1CNC(=O)Cn1nc(C)c2nn(-c3ccc(Cl)cc3)c(C)c2c1=O,IkBa stabilization activation,[1],inconclusive: -0.62% [signal inhibitor]
CC(C)COc1ccccc1C1CC(=O)Nc2cc3c(cc21)OCO3 (configuration not stated),Potency,[1],inconclusive: 7.94 µM [signal inhibitor]
Cc1ccc(NC(=O)c2ccc(F)c(S(=O)(=O)N3CCOCC3)c2)cc1F,IkBa stabilization activation,[1],inconclusive: -0.955% [signal inhibitor]
Clc1cccc(-n2ncc3c(N4CCN(Cc5ccccc5)CC4)ncnc32)c1,IkBa stabilization activation,[1],inconclusive: 0.425% [signal inhibitor]
COc1cccc(CNC(=O)Cn2ccc3cc(S(=O)(=O)N4CCC(C)CC4)ccc32)c1,IkBa stabilization activation,[1],inconclusive: -0.295% [signal inhibitor]
Cc1cc(C)cc(OCC(=O)N(Cc2ccc(C)o2)C2CCS(=O)(=O)C2)c1 (configuration not stated),IkBa stabilization activation,[1],inconclusive: 0.869% [signal inhibitor]
CCOc1ccc(-c2nn3c(-c4ccccc4)nnc3s2)cc1,IkBa stabilization activation,[1],inactive
CCC(CC)C(=O)Nc1ccc2nc(SCC(=O)N3c4ccccc4CC3C)sc2c1 (configuration not stated),IkBa stabilization activation,[1],inconclusive: -1.96% [signal inhibitor]
CCOC(=O)c1c(C)sc(-c2c(-c3ccc(OC)c(F)c3)[nH]c3c2c(=O)[nH]c(=O)n3C)c1O,IkBa stabilization activation,[1],inconclusive: 0.689% [signal inhibitor]
COCCn1c(=O)c(-c2ccccc2)nc2cnc(N3CCN(C)CC3)nc21,IkBa stabilization activation,[1],"inactive: 2.33% [at 11.4 µM, scaled: untreated 0%, proteasome inhibitor 100%]"
Cc1cc(=O)oc2c(C)c(OCC(=O)N(C)C)ccc12,IkBa stabilization activation,[1],inactive
COc1ccc(Cl)cc1NC(=O)c1c(NCc2ccc(C)o2)sc2c1CCCC2,IkBa stabilization activation,[1],inconclusive: 1.22% [signal inhibitor]
COc1cccc(N(CC(=O)N2CCC(C)CC2)S(=O)(=O)c2ccc(C)cc2)c1,IkBa stabilization activation,[1],inconclusive: 1.78% [signal inhibitor]
Cc1ccc(CN(Cc2ccco2)C(=O)c2oc3c(C)c(C)ccc3c2C)cc1,IkBa stabilization activation,[1],inconclusive: -0.975% [signal inhibitor]
CN(C)c1ccc(C(=C2C=CC(=[N+](C)C)C=C2)c2ccccc2)cc1,IkBa stabilization activation,[1],inconclusive: 2.96% [signal inhibitor]
same,IkBa stabilization activation,"at 11.4 µM (top of the series), proteasome inhibitor 100%",inactive: 16.5%
CCOC(=O)c1c(-c2ccccc2)oc2ccc(NS(=O)(=O)c3ccc(C(C)C)cc3)cc12,IkBa stabilization activation,[1],inconclusive: 10.2% [signal inhibitor]
CCCCCn1c(=N)n(CC(O)COc2ccccc2OC)c2ccccc21 (configuration not stated),IkBa stabilization activation,[1],inconclusive: -11% [signal inhibitor]
CCOc1ccccc1CNC(=O)CN1C(=O)CCc2cc(S(=O)(=O)N3CCCCC3)ccc21,IkBa stabilization activation,[1],inactive
c1ccc2sc(SCN(C3CCCCC3)C3CCCCC3)nc2c1,IkBa stabilization activation,[1],"inactive: 1.61% [at 11.4 µM, scaled: untreated 0%, proteasome inhibitor 100%]"
COc1ccc(N2Cc3cccc(C(=O)NC(C)CCc4ccco4)c3C2=O)cc1 (configuration not stated),Potency,[1],"inconclusive: 31.6 µM [signal inhibitor, partial curve]"
Cc1ccc(Cn2nc(C)c(NC(=O)c3cc(-c4ccco4)on3)c2C)cc1,IkBa stabilization activation,[1],inconclusive: 3.85% [signal inhibitor]
CCOc1ccc(CNC(=O)CCCn2c(=O)c3cccn3c3ccc(F)cc32)cc1,IkBa stabilization activation,[1],inconclusive: 2.01% [signal inhibitor]
COC(=O)c1[nH]c2ccc(C)cc2c1NC(=O)Nc1ccccc1OC,IkBa stabilization activation,[1],inactive
Cn1c(=O)c(=O)n(C)c2cc(NC(=O)c3ccccc3Br)ccc21,IkBa stabilization activation,[1],inconclusive: 2.52% [signal inhibitor]
CC(=O)N1CCc2c(sc3c2c(=O)n(Cc2ccccc2)c(=O)n3CC(=O)Nc2ccc(C)c(F)c2)C1,IkBa stabilization activation,[1],inconclusive: 4.75% [signal inhibitor]
COc1ccc(CN2C(=O)C(NC(=O)c3ccccc3OC)(C(F)(F)F)N=C2c2ccccc2)cc1 (configuration not stated),IkBa stabilization activation,[1],inconclusive: -1.08% [signal inhibitor]
